Reference: PubChem BioAssay AID504832 (National Center for Advancing Translational Sciences (NCATS), 2011)
Hit rate of the full screen: of about 310,000 compounds, about 18,000 (5.8%) were called active. Inconclusive results, whose numbers are uncertain, are shown with a selection of clear calls. Calls come from the whole dose curve; as a rule, active = well fitted inhibition curve with a large enough effect; inconclusive = small, poorly fitted or top-dose-only effect, or another doubt; inactive = no such curve, though single readings can be large or run the other way. No potency is given beside an inconclusive call; the fits are too rough.

Experiment: Primary qHTS for delayed death inhibitors of the malarial parasite plastid, 48 hour incubation
Conditions: P. falciparum luciferase growth in erythrocytes; series mostly up to 28.7 µM; activity change, negative = inhibition: at the top concentration
How it was run: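 A one-generation exposure of luciferase-tagged malaria parasites in RPMI 1640/Albumax erythrocyte culture, 37 C and 5% CO2. Inhibition is inferred from decreased luminescence after adding detection reagent.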
% is set by controls: 0 for no effect and ±100 for the full control effect; potency is the fitted concentration of half-maximal effect; tags give direction and shape of the fitted curve.

Row | SMILES | Potency | activity change, negative = inhibition
1 | Cn1nc(C(F)(F)F)c(-c2ccc(F)cc2)c1NC(=O)Nc1ccc(F)cc1 | active: 0.828 µM | –
2 | CS(=O)(=O)N(Cc1ccccc1)c1ccc(C(=O)Nc2ccc(C(N)=O)cc2)cc1 | inconclusive [inhibitor, partial curve] | –
3 | CC(C)c1ccc(/C=C/C(=O)Nc2nc3ccc([N+](=O)[O-])cc3s2)cc1 | inconclusive [inhibitor, full curve] | –
4 | Cn1ccc(C(=O)OCC(=O)Nc2ccccc2Cl)n1 | – | inactive: 29.5%
5 | CCOc1ccc(/C=N/NC(=O)C(O)c2ccccc2)c(O)c1 (configuration not stated) | – | inactive: -15.2%
6 | Cc1cccc(-n2c(CNC(=O)c3ccc(S(=O)(=O)N4CCCCC4)cc3)n[nH]c2=S)c1 | – | inactive: -4.78%
7 | CC(C)(C)OC(=O)N1CCC[C@H]1C(=O)Nc1ccc(S(=O)(=O)C(F)F)cc1 | – | inactive: -7.88%
8 | CC(C)(C)NC(=O)N1CCCC(C(=O)c2cccc(Cl)c2)C1 (configuration not stated) | – | inactive: -17%
9 | Cc1n(CC(O)COC2CCCCC2)c2ccccc2[n+]1C (configuration not stated) | active: 6.57 µM | –
10 | CCOC(=O)Cc1csc(NC(=O)COc2ccc(C)cc2)n1 | inconclusive [inhibitor, single point] | –
11 | CCOC(=O)N1CCC(c2cc(=O)n(-c3ccccc3)[nH]2)CC1 | active: 9.28 µM | –
12 | CC1(OC(=O)C2CCCC2)C(=O)C=C2C=C(c3ccsc3)N(CCc3c[nH]c4ccccc34)C=C2C1=O (configuration not stated) | active: 9.28 µM | –
13 | Cc1cccc[n+]1CC(=O)Nc1cccc([N+](=O)[O-])c1 | inconclusive [inhibitor, partial curve, poor fit] | –
14 | COc1ccc(/C=N/NC(=O)CSCc2ccc([N+](=O)[O-])cc2)cc1OC | – | inactive: -25.4%
15 | O=C(Nc1ccccc1[N+](=O)[O-])C1C(c2ccccc2)=C1c1ccccc1 | inconclusive [inhibitor, partial curve] | –
16 | CC(=O)c1cn(CC(=O)Nc2ccccc2F)c2ccccc12 | – | inactive: -14.5%
17 | Cc1nn(C)cc1C(=O)Nc1cc(Oc2ccc(Cl)cc2)cc([N+](=O)[O-])c1 | inconclusive [inhibitor, single point] | –
18 | CC(C)c1ccc2occ(-c3nn[nH]n3)c(=O)c2c1 | – | inactive: -20.1%
19 | Cn1c(=O)c2sccc2n(Cc2ccc(Br)cc2)c1=O | inconclusive [inhibitor, full curve, poor fit] | –
20 | O=S(=O)(Nc1ccc(-n2cccc2)cc1)c1ccc(Cl)cc1Cl | inconclusive [inhibitor, single point] | –
21 | CCN(C(=O)COC(=O)c1c(C)c(-c2ccccc2)nc2ccccc12)C1CCS(=O)(=O)C1 (configuration not stated) | inconclusive [inhibitor, partial curve] | –
22 | CCc1ccc(NC(=S)Nn2cnnc2)cc1 | – | inactive: 17.3%
23 | Cc1cc(Cl)ccc1NC(=O)CCC(=O)N/N=C/c1cc([N+](=O)[O-])ccc1O | inconclusive [inhibitor, single point] | –
24 | COC(=O)Nc1ccc(S(=O)(=O)N2c3ccccc3CCC2C)cc1 (configuration not stated) | active: 14.7 µM | –

Row | SMILES | Potency | activity change, negative = inhibition
25 | Cc1nnc(SC2CC(=O)N(c3ccccc3)C2=O)s1 (configuration not stated) | – | inactive: 26.7%
26 | Cc1cccc(N2CCN(C(=O)CCCn3c(=S)[nH]c4cc5c(cc4c3=O)OCO5)CC2)c1C | inconclusive [inhibitor, partial curve, poor fit] | –
27 | COc1ccccc1N(Cc1ccccc1)S(=O)(=O)c1cccc(C(=O)Nc2ccccn2)c1 | active: 10.4 µM | –
28 | CCCCNC(=O)NNC(=O)c1ccoc1C | inconclusive [inhibitor, single point] | –
29 | CCC(C(=O)N1CCN(Cc2ccc3c(c2)OCO3)CC1)n1c(=O)[nH]c2ccccc2c1=O (configuration not stated) | inconclusive [inhibitor, single point] | –
30 | CC(C)C(O)(C#CCN1CCCCCC1)c1ccccc1 (configuration not stated) | inconclusive [inhibitor, single point] | –
31 | CN(C)c1ccc(C(=S)N2CCCCC2)cc1 | – | inactive: 29.9%
32 | COc1cc(C(=O)NC(=S)NNC(=O)c2cnccn2)cc(OC)c1OC | active: 11.7 µM | –
33 | COc1ccccc1Nc1nc(-c2sc(NC(=O)c3ccccc3)nc2C)cs1 | inconclusive [inhibitor, single point] | –
34 | Cc1ccc(C(=O)NCCCNC(=O)c2ccccn2)cc1 | – | inactive: 5.27%
35 | O=C(C1CCCN(c2ncnc3c2nc2n3CCCCC2)C1)N1CCN(c2ccc(F)cc2)CC1 (configuration not stated) | active: 9.28 µM | –
36 | CC(=O)c1sc(NS(=O)(=O)c2ccc(C)cc2)nc1-c1ccccc1 | – | inactive: 14.2%
37 | NC(=O)N1N=C2/C(=C/c3ccccc3)CCCC2C1c1ccccc1 (configuration not stated) | inconclusive [inhibitor, partial curve, poor fit] | –
38 | CCOC(=O)C1(CCCc2ccccc2)CCN(C2CCCC2)CC1 | inconclusive [inhibitor, partial curve, poor fit] | –
39 | Cc1onc(-c2ccccc2)c1C(=O)N/N=C/c1ccc([N+](=O)[O-])s1 | active: 11.7 µM | –
40 | C=CCN1CCN(C(c2ccc(Cl)cc2)c2nnnn2CCc2ccc(OC)c(OC)c2)CC1 (configuration not stated) | inconclusive [inhibitor, partial curve, poor fit] | –
41 | Cc1ccc2c(c1)C(=O)C(=O)N2CC(=O)OC(C)C | – | inactive: 46.4%
42 | COC(=O)c1c(NC(=O)C2COc3ccccc3O2)sc2c1CCN(C(C)=O)C2 (configuration not stated) | inconclusive [inhibitor, single point] | –
43 | CC(=O)NCc1cc(-c2nn(C)c(=O)c3ccccc23)ccc1C | – | inactive: -3.24%
44 | COCCNC(=O)C(c1ccc(F)cc1)N(CC1CCCO1)C(=O)CCC(=O)Nc1ccccn1 (configuration not stated) | inconclusive [inhibitor, partial curve, poor fit] | –
45 | Cc1cccc(-n2ncc3c(=O)[nH]c(SCC(=O)NCCC4=CCCCC4)nc32)c1 | – | inactive: -27.3%
46 | O=C(C1Cc2ccccc2CN1S(=O)(=O)c1cccs1)N1CCCCC1 (configuration not stated) | – | inactive: -7.51%
47 | Cc1ccc(NC(=O)CS(=O)CC(=O)N(C(C)C(=O)NC2CCCCC2)C(C)(C)C)cc1 (configuration not stated) | inconclusive [inhibitor, single point] | –
48 | Fc1ccc(CSc2nncn2NC/C=C/c2ccccc2)cc1 | inconclusive [inhibitor, partial curve, poor fit] | –

Row | SMILES | Potency | activity change, negative = inhibition
49 | CN1C(=O)/C(=C/c2ccccc2F)Sc2ccc(C(=O)N3CCCC3)cc21 | inconclusive [inhibitor, partial curve] | –
50 | Cc1ccc(C)c(-c2nnc(NC(=O)c3ccco3)o2)c1 | inconclusive [inhibitor, single point] | –
51 | CC(CC(=O)O)CC(=O)Nc1ccc(Br)cc1 (configuration not stated) | inconclusive [inhibitor, single point] | –
52 | Cc1cccc(CN2C(=O)CCSc3ccc(Cl)cc32)c1 | inconclusive [inhibitor, full curve, poor fit] | –
53 | Cc1cc(C)n(C(=O)C2CCCN2S(=O)(=O)c2ccc(Cl)cc2)n1 (configuration not stated) | – | inactive: 13.3%
54 | CCN(CC)c1ccc(/C=N/N2CCN(c3ccccn3)CC2)cc1 | inconclusive [inhibitor, partial curve] | –
55 | O=C(Cn1nc(-c2cccc(Cl)c2)ccc1=O)Nc1ccc(C(=O)NC2CC2)cc1 | inconclusive [inhibitor, full curve, poor fit] | –
56 | CC(/C=N/Nc1nc2ccccc2[nH]1)=C\c1ccccc1 | inconclusive [inhibitor, full curve, poor fit] | –
57 | COc1ccc(C2=CC(c3ccc(OC)c(OC)c3)c3c(c4ccccc4oc3=O)O2)cc1OC (configuration not stated) | active: 2.62 µM | –
58 | Cc1nnc(SCC(=O)c2c(N)n(C)c(=O)n(C)c2=O)n1Cc1ccccc1 | – | inactive: -5.9%
59 | COc1ccc(N2CCN(c3ccc(N4C(=O)COCC4=O)cc3[N+](=O)[O-])CC2)cc1 | inconclusive [inhibitor, partial curve, poor fit] | –
60 | O=C(Cn1c(=O)n(Cc2ccc3c(c2)OCO3)c(=O)c2ccccc21)N1CCCc2ccccc21 | active: 10.4 µM | –
61 | CCOC(=O)C1C(=O)C=C(C)C(C(=O)OCC)C1c1cccc([N+](=O)[O-])c1 (configuration not stated) | inconclusive [inhibitor, partial curve, poor fit] | –
62 | CCOc1ccc(CNC(=O)c2cccc(NC(=O)C3=C(C)OCCS3)c2)cc1 | inconclusive [inhibitor, single point] | –
63 | CC(C)OP(=O)(c1ccc(N(C)C)cc1)C(Nc1ccccc1)c1cccnc1 (configuration not stated) | inconclusive [inhibitor, single point] | –
64 | Cc1ccc(C(=O)C2CCN(CC(=O)Nc3ccc(N(C)C)cc3)CC2)cc1 | inconclusive [inhibitor, partial curve] | –
65 | COc1cccc(CN2CCN(C(=O)c3cc(-c4cccnc4)nc4ccc(C)cc34)CC2)c1 | active: 9.28 µM | –
66 | COc1cc(-c2nn3c(COc4ccccc4)nnc3s2)cc(OC)c1OC | – | inactive: -20.2%
67 | CCOC(=O)C1CCCN(c2oc(-c3ccc(OC)cc3)nc2C#N)C1 (configuration not stated) | inconclusive [inhibitor, partial curve] | –
68 | O=C(CNC(=O)c1ccccc1O)N/N=C/c1cc(Br)ccc1OC(=O)/C=C/c1ccco1 | inconclusive [inhibitor, partial curve] | –
69 | CN(Cc1ccon1)C(=O)CC1C(=O)NCCN1Cc1ccc(F)c(F)c1 (configuration not stated) | – | inactive: 0.703%
70 | Cc1cccc(C(=O)Nc2c(C(=O)N(C)C)cnn2-c2ccccc2)c1 | – | inactive: -25.5%
71 | COc1ccc(NC(=O)CSc2nnc(C3CCCCC3)n2N)cc1 | – | inactive: 5.23%
72 | CCN(CC)c1ccc(S(=O)(=O)N(CC)CC)cc1NC(=O)C1CCCC1 | active: 14.7 µM | –
